The results in this text go back to patent US20260055169A1 (PARAGON THERAPEUTICS, published 2026).

As usually defined, the Kd is a measure of binding affinity in units of concentration. Usually koff stands for a measure of how fast the partners let go of each other. Broadly, the kon is a measure of how fast the partners come together.

The target of experiment [1] is T1, Recombinant cynomolgus serum albumin (cynomolgus, UniProt A2V9Z4 25-608).
T1 construct: Analyte in SPR
The experiment is described as follows: SPR Biacore 8K, VHH-Fc captured by anti-human Fc, albumin injected, pH 6.0, 25 C.

Experiment [2] deals with T2, Recombinant human serum albumin (human, UniProt P02768).
T2 construct: Analyte in SPR
The experiment is described as above.

For experiment [3], the target named is T3, Recombinant mouse serum albumin (mouse, UniProt P07724 25-608).
T3 construct: Analyte in SPR, 0-500 nM
T3 sequence (P07724 25-608 limits assumed): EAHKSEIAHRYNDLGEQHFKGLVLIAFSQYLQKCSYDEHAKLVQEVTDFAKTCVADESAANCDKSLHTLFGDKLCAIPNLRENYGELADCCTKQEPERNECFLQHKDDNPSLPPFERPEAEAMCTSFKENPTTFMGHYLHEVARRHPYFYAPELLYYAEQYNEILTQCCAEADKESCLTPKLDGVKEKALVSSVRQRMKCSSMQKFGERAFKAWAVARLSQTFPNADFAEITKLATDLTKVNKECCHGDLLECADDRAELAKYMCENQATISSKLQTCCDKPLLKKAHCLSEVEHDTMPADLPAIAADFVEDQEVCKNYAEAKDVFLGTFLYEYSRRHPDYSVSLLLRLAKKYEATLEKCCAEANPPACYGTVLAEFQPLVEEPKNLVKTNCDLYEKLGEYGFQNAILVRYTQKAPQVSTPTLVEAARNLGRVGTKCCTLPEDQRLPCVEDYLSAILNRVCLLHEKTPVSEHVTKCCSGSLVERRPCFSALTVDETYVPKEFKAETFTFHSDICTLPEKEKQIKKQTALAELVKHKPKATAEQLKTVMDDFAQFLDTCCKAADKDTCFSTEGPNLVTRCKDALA
The experiment in a line: SPR, Fc fusion captured on anti-human Fc, mouse albumin as analyte, pH 6.0. (In general: In SPR one partner is held on a chip, and binding of the other changes the refractive index at the surface.)

T1 sequence (A2V9Z4 25-608 limits assumed): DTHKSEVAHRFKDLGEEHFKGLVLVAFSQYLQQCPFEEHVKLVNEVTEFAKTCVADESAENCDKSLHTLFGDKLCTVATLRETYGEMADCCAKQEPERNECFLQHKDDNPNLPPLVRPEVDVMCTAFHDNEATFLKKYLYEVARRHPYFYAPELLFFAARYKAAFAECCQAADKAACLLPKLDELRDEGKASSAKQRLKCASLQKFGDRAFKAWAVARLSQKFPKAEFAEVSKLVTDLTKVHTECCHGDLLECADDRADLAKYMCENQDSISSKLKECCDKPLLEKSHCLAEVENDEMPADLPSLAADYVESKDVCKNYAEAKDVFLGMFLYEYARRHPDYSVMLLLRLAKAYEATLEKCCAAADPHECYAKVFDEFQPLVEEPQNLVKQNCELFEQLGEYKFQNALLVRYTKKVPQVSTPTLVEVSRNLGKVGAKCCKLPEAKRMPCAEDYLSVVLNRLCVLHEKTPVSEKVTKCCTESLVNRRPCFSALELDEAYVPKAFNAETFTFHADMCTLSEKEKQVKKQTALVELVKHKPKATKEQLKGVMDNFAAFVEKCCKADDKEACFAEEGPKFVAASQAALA

B1: VHH 10 - G4S - wild-type IgG1 Fc fusion (VHH-Fc fusion, SEQ ID NO: 151) (Fc fusion)
chain: EVQLVESGGGLVQPGGSLRLSCAASGFTFGSFGMSWVRQAPGKGPEWVSAIDSGGADTRYAESVKGRFTISRDNAKKTLYLQMNSLKPEDTAVYYCTIGRSASRGSQGTQVTVSSGGGGS[letters of human IgG1 Fc left out]
In the case of B1, in experiment [1], the equilibrium dissociation constant (Kd) is 56.4 nM, the koff was 0.0102 s⁻¹ and the kon amounted to 180000 M⁻¹ s⁻¹. Besides, in experiment [2], the Kd came to 20.7 nM, the koff is 0.00351 s⁻¹ and the kon was 169000 M⁻¹ s⁻¹.

B2: VHH 6-Fc fusion (SEQ ID NO: 147) (Fc fusion)
chain: QVQLVESGGGLVQPGGSLRLSCAASGFTFGSFGMSWVRQAPGKGPEWVSAIDSGGADTRYAESVKGRFTISRDNAKKTLYLQMNSLKPEDTAVYYCTIGQSTSRGSQGTQVTVSSGGGGS[letters of human IgG1 Fc left out]
notes: Llama VHH-G4S-wild-type IgG1 Fc
For B2, in experiment [3], the equilibrium dissociation constant (Kd) is 9.44 nM, the koff is 0.00101 s⁻¹ and the kon stood at 107000 M⁻¹ s⁻¹.

B3: VHH 13-Fc fusion (SEQ ID NO: 154) (Fc fusion)
chain: EVQLVESGGGLVQAGGSLRLSCAASGFTFGSFGMSWVRQVPGKGPEWVSAIDSGGTDTRYAESIKGRFIISRDNAKKTLYLQMNSLKPEDTAVYYCTIGQSTSRGSQGTQVTVSSGGGGS[letters of human IgG1 Fc left out]
notes: as for B2
Regarding B3, in experiment [3], the Kd was found to be 6.52 nM, the koff is 0.000796 s⁻¹ and the kon stood at 122000 M⁻¹ s⁻¹.

B4: VHH 7-Fc fusion (SEQ ID NO: 148) (Fc fusion)
chain: EVQLVESGGGLVQSGGSLRLSCAASGFTFGSFGMSWVRQAPGKGPEWVSAIDGGGADTRYAESVKGRFTISRDNAKKTLYLQMNSLKPEDTAVYYCTIGQSTSRGSQGTQVTVSSGGGGS[letters of human IgG1 Fc left out]
notes: as for B2
B4: in experiment [3], the Kd was 453 nM, the koff was 0.0448 s⁻¹ and the kon is 99000 M⁻¹ s⁻¹.

B5: VHH 10-Fc fusion (SEQ ID NO: 151) (Fc fusion)
chain: EVQLVESGGGLVQPGGSLRLSCAASGFTFGSFGMSWVRQAPGKGPEWVSAIDSGGADTRYAESVKGRFTISRDNAKKTLYLQMNSLKPEDTAVYYCTIGRSASRGSQGTQVTVSSGGGGS[letters of human IgG1 Fc left out]
Turning to B5, in experiment [3], the Kd was 184 nM, the off-rate constant (koff) stood at 0.0276 s⁻¹ and the kon came to 150000 M⁻¹ s⁻¹.

B6: VHH 5-Fc fusion (SEQ ID NO: 146) (Fc fusion)
chain: EVQLVESGGGLVQPGGSLRLSCAASGFTFGSFGMSWVRQAPGKGPEWVSAIDSGGTDTRYAESIKGRFTISRDNAKKTLYLQMNSLKPEDTAVYYCTIGQSTSRGSQGTQVTVSSGGGGS[letters of human IgG1 Fc left out]
notes: as for B2
Take B6: in experiment [3], the Kd came out at 7.01 nM, the koff stood at 0.000799 s⁻¹ and the kon is 114000 M⁻¹ s⁻¹.

B7: VHH 2-Fc fusion (SEQ ID NO: 143) (Fc fusion)
chain: QVQLVESGGGLVQPGGSLRLSCAASGFTFGRFGMSWVRQAPGKGPEWVSAIDSGGADTRYAESVKGRFTISRDNAKKTLYLQMNSLKPEDTAVYYCTIGRSTSRGSQGTQVTVSSGGGGS[letters of human IgG1 Fc left out]
notes: as for B2
On to B7, for which, in experiment [3], the Kd was determined as 143 nM, the koff came to 0.0187 s⁻¹ and the kon worked out at 131000 M⁻¹ s⁻¹.

B8: VHH 3-Fc fusion (SEQ ID NO: 144) (Fc fusion)
chain: EVQLVESGGGLVQPGGSLRLSCAASGFTFGSFGMSWVRQAPGKGPEWVSAIDSGGADTRYAESVKGRFTISRDNAKKTLYLQMNSLKPEDTAVYYCTIGQSTSRGSQGTQVTVSSGGGGS[letters of human IgG1 Fc left out]
notes: as for B2
On to B8, for which, in experiment [3], the Kd was determined as 10.6 nM, the koff came out at 0.00107 s⁻¹ and the kon amounted to 101000 M⁻¹ s⁻¹.

B9: VHH 11-Fc fusion (SEQ ID NO: 152) (Fc fusion)
chain: QVQLVESGGGLVQPGGSLRLSCAASGFTFGSFGMSWVRQAPGKGPEWVSAIDSGGADTRYAETVKGRFTISRDNLKKTLYLQMNSLKPEDTAVYYCTIGRSTSRGSQGTQVTVSSGGGGS[letters of human IgG1 Fc left out]
notes: as for B2
As for B9, in experiment [3], the Kd worked out at 163 nM, the koff was 0.0241 s⁻¹ and the association rate constant (kon) worked out at 148000 M⁻¹ s⁻¹.
